Results: the supplement of paper PMC3694890
± gives the uncertainty stated by the source. Some of the results follow. Phosphotyrosine is written y.

B1: EPHA1_599/A1 (peptide)
chain: yVDLQA
B2: EPHA1_605/A1 (peptide)
chain: yEDPAQ
B3: EPHA1_781/A1 (peptide)
chain: yETQGG
B4: EPHA1_930/A1 (peptide)
chain: yILHFH
B5: ABL2_261/A1 (peptide)
chain: yPAPKC
B6: EPHA2_575/A1 (peptide)
chain: yFSKSE
B7: EPHA2_594/A1 (peptide)
chain: yEDPNQ
B8: EPHA2_628/A1 (peptide)
chain: yKGMLK
B9: EPHA2_735/A1 (peptide)
chain: yVHRDL
B10: EPHA2_772/A1 (peptide)
chain: yTTSGG
B11: EPHA2_791/A1 (peptide)
chain: yRKFTS
B12: EPHA2_921/A1 (peptide)
chain: yTEHFM
B13: EPHA2_930/A1 (peptide)
chain: yTAIEK
B14: EPHA2_960/A1 (peptide)
chain: ySLLGL
B15: EPHA3_596/A1 (peptide)
chain: yVDPHT
B16: ABL2_272/A1 (peptide)
chain: yGVSPI

Each binder was assayed against GRB2 (endogenous complexes from cell lysate), P62993 (assay: GRB2 complex binding differential signal (pY peptide minus Ala control peptide) (fluorescence intensity units); higher = stronger GRB2 complex binding). Conditions: MCF7.
Experimental: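 In situ synthesized µParaflo PepArray of 6-mer peptides, each starting with an N-terminal phosphotyrosine (lowercase 'y' = pY) followed by 5 native residues. Peptides are tethered to glass through a long linker. Chips were incubated overnight at 4°C with total cell lysate (1 mg in 1 mL) from MCF10A, MCF7, T47D or MDA-MB-231 cells. Bound endogenous GRB2-containing complexes were detected with rabbit anti-GRB2 and an Alexa647 secondary antibody. Signals are background-subtracted and averaged over replicate spots, then the matched Ala-substituted control peptide signal is subtracted (differential signal).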
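Further: phosphopeptide probes on the chip at 1–4 µM, lysate proteins bound in 20 mM Tris pH 7.0 buffer with 140 mM NaCl, 1% Triton X-100 and 5% glycerol.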

Row | Binder | GRB2 complex binding differential signal
1 | B1 | 995 ± 380
2 | B2 | 5680 ± 1200
3 | B3 | 1750 ± 630
4 | B4 | -177 ± 280
5 | B5 | 1010 ± 320
6 | B6 | 1150 ± 2200
7 | B7 | 5750 ± 1500
8 | B8 | 450 ± 370
9 | B9 | 623 ± 350
10 | B10 | 4390 ± 730
11 | B11 | 666 ± 250
12 | B12 | 34.7 ± 260
13 | B13 | 2720 ± 390
14 | B14 | 16 ± 160
15 | B15 | 10100 ± 2100
16 | B16 | 1850 ± 1100

Same assay, conditions: MCF10A

Row | Binder | GRB2 complex binding differential signal
17 | B1 | 414 ± 310
18 | B2 | 2590 ± 540
19 | B3 | 1350 ± 340
20 | B4 | -171 ± 600
21 | B5 | 1560 ± 690
22 | B6 | 310 ± 190
23 | B7 | 4460 ± 1700
24 | B8 | 400 ± 200
25 | B9 | 373 ± 220
26 | B10 | 4170 ± 920
27 | B11 | 405 ± 210
28 | B12 | 239 ± 210
29 | B13 | 1800 ± 290
30 | B14 | 65.1 ± 170
31 | B15 | 5320 ± 1400
32 | B16 | 2050 ± 630

Same assay, conditions: MDA-MB-231

Row | Binder | GRB2 complex binding differential signal
33 | B1 | 1050 ± 800
34 | B2 | 3090 ± 660
35 | B3 | 1100 ± 540
36 | B4 | 168 ± 400
37 | B5 | 780 ± 390
38 | B6 | 909 ± 330
39 | B7 | 2480 ± 500
40 | B8 | 575 ± 310
41 | B9 | 453 ± 290
42 | B10 | 1210 ± 290
43 | B11 | 614 ± 320
44 | B12 | 389 ± 280
45 | B13 | 810 ± 600
46 | B14 | 464 ± 510
47 | B15 | 2920 ± 670
48 | B16 | 605 ± 380

Same assay, conditions: T47D

Row | Binder | GRB2 complex binding differential signal
49 | B1 | 1950 ± 1100
50 | B2 | 2270 ± 1400
51 | B3 | 940 ± 1200
52 | B4 | 126 ± 1500
53 | B5 | 830 ± 1100
54 | B6 | 715 ± 1000
55 | B7 | 2220 ± 1100
56 | B8 | 1060 ± 1400
57 | B9 | 727 ± 1100
58 | B10 | 2590 ± 1400
59 | B11 | 1290 ± 1100
60 | B12 | 268 ± 1000
61 | B13 | 847 ± 1400
62 | B14 | 868 ± 1100
63 | B15 | 2830 ± 3700
64 | B16 | 1670 ± 1100
